Data from the supplement of paper PMC11417369.
± gives the standard deviation of the averaged measurements. Some of the results follow.

The sequences below were run on PfAP2-EXP AP2 domain (GST-tagged) (assay: gcPBM binding intensity (ln(normalized median fluorescence intensity)); higher = stronger DNA binding).
In short: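 Binding intensity values are the highest Masliner-normalised natural-log median intensity among replicate spots of either probe orientation. The binding step lasted 1 h in 1× PBS with 1% milk, 0.2 mg/ml BSA, 0.5% salmon testes DNA and 0.03% Triton X-100, using GST-tagged P. falciparum DNA-binding domains expressed in E. coli on an Agilent 4 × 180k array of primer-extended double-stranded 36-bp intergenic genomic probes plus negative controls. Alexa488 anti-GST antibody and a 488 nm scan detected bound protein.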

| Sequence | gcPBM binding intensity (ln) |
| --- | --- |
| TATATGAATAAACATTGTACGTAAATATTAACTATC [XGTACX_site543] | 8.7 ± 0.31 |
| TATAATAATAATAATAATAATAATAATAATAATAAT [CACACA_negctrl_site905] | 8.285 ± 0.035 |
| CGCATAAAGACAAGAACACACATATAGATTGTAGTA [CACACA_site3693] | 8.27 ± 0.49 |
| AAAAAAAATTATATATGTACTTATTAATCCTTTTAT [XGTACX_site1387] | 8.12 ± 0.32 |
| TTATATATTAAGAAATGTACGAAAAAAAAAATTATA [XGTACX_site3893] | 8.52 ± 0.42 |
| AAGATGATAAAATATGTACACACAGTTTATACATTT [CACACA_site9341] | 8.21 ± 0.22 |
| ATATTTATAATATAGAGTACTTACTAAGTTATGGGT [XGTACX_site5405] | 8.77 ± 0.28 |
| AATGTGTAGGTAAGATAATTTTTGTTTTTTTATTTG [CACACA_negctrl_site424] | 8.42 ± 0.45 |
| TTAAACTTGAAACACACACACACACCCATATAAAAA [CACACA_site758] | 8.61 ± 0.38 |
| TGTAGTCTGGAGAAACGTACATAGTATCTGGTAGCT [XGTACX_site2538] | 8.59 ± 0.4 |
| TTTTTATATATATGTATAAATATTTTTTCTATTTAT [XGTACX_negctrl_site606] | 8.4 ± 0.33 |
| AAATTTTCTTAAGGTTGTACTTTTTGAAAATAATCT [XGTACX_site4894] | 8.26 ± 0.33 |
| ATAAATATGTTCTGCACACAAATAAGTGTTTGAAGT [CACACA_site3892] | 8.65 ± 0.18 |
| GAATTTCAACAAAGTAGTACATTTTATAGTAATTGG [XGTACX_site2319] | 8.29 ± 0.33 |
| TAATGGAATAAAAATTGTACATATTTTTTTTTTTTT [XGTACX_site7669] | 8.38 ± 0.2 |
| ACATACATACATACATACATACATACATACATACAT [XGTACX_negctrl_site315] | 9.23 ± 0.24 |
| AACTCACGAGGACACACACACATATATATATATATA [CACACA_site4711] | 10.1 ± 0.33 |
| TTTTTTTCTCTCTCTACACACAAGGTTTAATTTAAA [CACACA_site1690] | 8.64 ± 0.38 |
| TATAATATATCTGTAACACACAAAAGTTATATACTT [CACACA_site5578] | 8.23 ± 0.4 |
| TCATAGGGGTAGAAGGTGCAATAAAAAAGAAGAAAA | 9.34 ± 0.071 |
| TCATTCTAAATATAAACACACATAAATATATACATT [CACACA_site3354] | 8.54 ± 0.69 |
| AATATATAATTTTTAACACACAAAAAAAAAAAAAAT [CACACA_site3581] | 8.56 ± 0.52 |
| AAAAAAAAAAAAAAAACACACACATATAATATATTT [CACACA_site8369] | 8.59 ± 0.19 |

| Sequence | gcPBM binding intensity (ln) |
| --- | --- |
| ATTGCGTGATAATAATGTACAAAAAGTAATTTATAT [XGTACX_site8339] | 8.48 ± 0.45 |
| GGTACGTATTTCAATGCATGTCCATGTACATATAAA [TGCATGCA_site208] | 9.17 ± 0.38 |
| CTATAATGTTTCTTTCAACACACAAAAAATGAACAC [CACACA_site8438] | 8.88 ± 0.38 |
| CATACGTTCTAATATATACACACCTGGTATTAATTA [CACACA_site2221] | 8.62 ± 0.45 |
| AAAAAAAAAAAAAAAAGTACAAAAATATATATGCAT [XGTACX_site8392] | 8.72 ± 0.5 |
| TATGCACAGAAACACACACACACAACCAAAAAATAA [CACACA_site5425] | 8.72 ± 0.47 |
| AATAAAAAAAAATGCACACATATATATATATATATA [CACACA_site2421] | 10.2 ± 0.33 |
| TGTTATATATAAATTTGTACACATAAATATTTTTAC [XGTACX_site5873] | 8.71 ± 0.24 |
| TTTTTATTTATATGTATACACACTTTAATTAAAAGT [CACACA_site2525] | 8.97 ± 0.73 |
| CAGAATATATTCTATACATGCAATAGGAAATGTAGC [TGCATGCA_site110] | 9.39 ± 0.35 |
| TTATAATCTATACATATATATGTATGTATGTCTCAA [CACACA_negctrl_site1702] | 8.29 ± 0.32 |
| AAATGCGTATATAACGCATGTATAAGAACATTTTTT [TGCATGCA_site225] | 8.37 ± 0.54 |
| GAAGTATTATTAAAGCTGCACTTTTCTAAAATAAAC [GTGCAC_site9429] | 8.43 ± 0.11 |
| ACATCATTTTTATGTACACACACATATACGTTGAAT [CACACA_site5095] | 8.97 ± 0.29 |
| TAAAATTTACAACACTGTACTTGAATTTATCTTTAA [XGTACX_site241] | 8.25 ± 0.37 |
| CATTAATTTAATAAATGTACATAAAATATATATTAT [XGTACX_site8085] | 8.9 ± 0.51 |
| GCAGTATGCGATCAGTGTACGAGTTATTTTATAAAA [XGTACX_site4764] | 8.4 ± 0.38 |
| CTAATATATGTATGCACACACAATATATACATATTT [CACACA_site3360] | 8.68 ± 0.11 |
| GTTATACACATATATACACACATATGTAAATATATA [CACACA_site9080] | 8.52 ± 0.33 |
| GTCCTTACTAATTAATTTTAGGCCATATAGTTTGTC [XGTACX_negctrl_site199] | 8.9 ± 0.45 |
| ATATTACAAATATAATGTACAAAATATAAATATGCA [XGTACX_site8106] | 8.72 ± 0.45 |
| TGCCATATATATATTAAATACATAATAATGAGCCTA [GTGCAC_negctrl_site10] | 8.18 ± 0.26 |
| AAAATATATAATTTTTAACACACAAAAAAAAAAAAA [CACACA_site9192] | 8.4 ± 0.47 |

| Sequence | gcPBM binding intensity (ln) |
| --- | --- |
| ATAAACAAAAAAAAAAAATATATCAATATATATATA [CACACA_negctrl_site299] | 9.53 ± 0.25 |
| AGTCATAAATTTATTTGTACATATAATATATATATA [XGTACX_site8489] | 9.48 ± 0.25 |
| ATGTTATATTTTTTTATACACACTGGGATATATAAA [CACACA_site6244] | 8.6 ± 0.37 |
| TTCATTGTGTTAACGGTGCATATATTTTTTCACCGT [GTGCAC_site9464] | 9.05 ± 0.27 |
| ATATTAAAAAAATATGCATGCAAATATTATTTTGTA [TGCATGCA_site191] | 9.79 ± 0.42 |
| TAAAAATATAAAAAGTGTACAATATATAAATTAATA [XGTACX_site1606] | 8.62 ± 0.39 |
| TTTTTCTTTTTTTTTTTAATAATATATAACAAATTT [CACACA_negctrl_site1724] | 8.29 ± 0.43 |
| TATTTAATTAATATAATATTAAACGGAAAAGATAAA [TGCATGCA_negctrl_site148] | 8.72 ± 0.45 |
| AATCAAATTTTCAAGTCGCACCAAACAAAAAAATGA [CACACA_negctrl_site1397] | 8.67 ± 0.35 |
| TATTTTTATTTTCCTTCACACATTTTTTATATTTTT [CACACA_site5830] | 8.94 ± 0.53 |
| TTTTAATTTATCGACACACGCATGAATAGAAATTAG [CACACA_site3361] | 8.55 ± 0.31 |
| AAAAAAAAAAAAAAAACACACATATAGATTATTGTA [CACACA_site7797] | 8.33 ± 0.38 |
| AACACAATAAAAATTAAAAATGTTAAGTAAATATAA [GTGCAC_negctrl_site60] | 8.43 ± 0.26 |
| TTATAATTTAATAAATGTACATAAATAATATACATA [XGTACX_site7271] | 8.26 ± 0.18 |
| AGACAATATCTTATTTGTACATATGTATTCCTCATA [XGTACX_site5757] | 8.56 ± 0.99 |
| ACTTTTTTTTTTTTTTTAGATTACATAAATATAAAT [CACACA_negctrl_site139] | 8.36 ± 0.33 |
| TTATAAATTTAAAAAGTGCATAATAATAACAAAAAG | 8.89 ± 0.23 |
| TATGTATATTTAAATGCATGTGATTATTTTTGACTT [TGCATGCA_site568] | 8.47 ± 0.42 |
| ATTATGGATACATAAACACACATATATATAAAAAAA [CACACA_site4303] | 8.74 ± 0.45 |
| ACATGATAAATAGTCACACATAAATATAATATATAT [CACACA_site5207] | 8.61 ± 0.39 |
| AATTATTCATAAAATGCATGTACATGGTTTAATATT [TGCATGCA_site87] | 8.84 ± 0.25 |
| ATACATGTTTTATGTGCACACAAAGTTGTTATGAGG [CACACA_site4032] | 9.1 ± 0.3 |
| TCGTAAACTTTATGCACACACATATACATATTTCAT [CACACA_site739] | 8.71 ± 0.28 |

| Sequence | gcPBM binding intensity (ln) |
| --- | --- |
| ATAATACACAAGCACACACACACACGGATATTTATA [CACACA_site6714] | 8.79 ± 0.38 |
| ATAATTATATTTTATTCACACATCGTTATATAGTAA [CACACA_site4743] | 8.54 ± 0.42 |
| TATAAAATATATATCTGTACGTATTTTATTTTTTAT [XGTACX_site6257] | 8.42 ± 0.37 |
| TATAAGCAAAGACACACACACATATAAATATAAATA [CACACA_site7740] | 8.43 ± 0.38 |
| AATACAATATAAAGGTGTACATATATATATATATAT [XGTACX_site68] | 10.1 ± 0.48 |
| AAAAAAAAAAAAAAAACACACACAACACCCATACCT [CACACA_site9208] | 8.92 ± 0.2 |
| ATGTAGATAGATAGGGTGCTAAAAATAAGATTTATA [GTGCAC_site9602] | 8.66 ± 0.18 |
| TATATATATATATGAGTGCATATGTGTAATATAAAA | 10.1 ± 0.42 |
| TACAAAATATTTTACACACACATATAAATACCTATA [CACACA_site7272] | 8.54 ± 0.33 |
| TTATGTTCTTAATGCACACTTATAAGTATCTTATAA [CACACA_site1394] | 9.04 ± 0.2 |
| TATATAATTATTTGATGTACACTACAATGTATTTGT [XGTACX_site7991] | 8.76 ± 0.19 |
| AGAAAAATTCTAAGAACATGCAAAAAAATAAAAAAA [TGCATGCA_site293] | 8.88 ± 0.5 |
| TTAACATTTTAAAAATGTACATTTATATACATAAAT [XGTACX_site922] | 8.44 ± 0.4 |
| AAAAAATAAATAAATATACACACCATATATATATTT [CACACA_site2854] | 8.29 ± 0.35 |
| TCTAATGTAATGCATACACACAACTATCCATCAAAA [CACACA_site534] | 8.44 ± 0.4 |
| AAAAAAAAAAAAAAAAGTACAAAAAAAAAAAAAAAA [XGTACX_site4549] | 8.26 ± 0.057 |
| TTTTTTTTTTTAAATAGTACACATATATATATATAT [XGTACX_site6983] | 10.1 ± 0.37 |
| TATACCTATAGACACACACACATAAATAGATATATA [CACACA_site6748] | 8.83 ± 0.51 |
| TACACGCATAGACACACACACACACGCATATAAATA [CACACA_site6446] | 8.77 ± 0.45 |
| AGTTTACACCTTGTGAGTACATACATACATATATAT [XGTACX_site8793] | 8.63 ± 0.36 |
